Experimental data taken from article PMC11876325.
These are yes or no findings as the source states them, for the method shown. Some entries that bind do so weakly or less than the wild type.

Sequences of proteins named here, by UniProt entry; tags and fusion partners are left off.
UniProt P25454: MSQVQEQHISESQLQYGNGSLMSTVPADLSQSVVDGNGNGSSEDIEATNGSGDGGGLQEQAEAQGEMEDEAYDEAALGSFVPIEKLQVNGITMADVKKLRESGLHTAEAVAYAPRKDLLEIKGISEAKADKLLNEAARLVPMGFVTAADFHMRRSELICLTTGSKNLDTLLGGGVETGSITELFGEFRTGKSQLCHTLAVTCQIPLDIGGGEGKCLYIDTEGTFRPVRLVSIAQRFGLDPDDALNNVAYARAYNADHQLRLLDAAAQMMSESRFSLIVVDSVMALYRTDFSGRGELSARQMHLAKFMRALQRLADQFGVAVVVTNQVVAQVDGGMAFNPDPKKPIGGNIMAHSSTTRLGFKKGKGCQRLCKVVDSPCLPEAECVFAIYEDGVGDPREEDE

T1: Psy3-S18A (pGBD psy3-S18A) (S. cerevisiae) (UniProt Q12318)
T1 sequence: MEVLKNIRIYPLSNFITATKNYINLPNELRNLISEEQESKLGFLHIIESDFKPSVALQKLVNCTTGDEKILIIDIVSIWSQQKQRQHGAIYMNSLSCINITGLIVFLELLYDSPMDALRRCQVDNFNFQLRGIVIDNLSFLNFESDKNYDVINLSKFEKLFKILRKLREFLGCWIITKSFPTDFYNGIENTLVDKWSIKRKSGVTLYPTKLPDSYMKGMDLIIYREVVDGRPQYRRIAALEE

T2: Psy3 (pGBD Psy3) (S. cerevisiae) (UniProt Q12318)
T2 sequence: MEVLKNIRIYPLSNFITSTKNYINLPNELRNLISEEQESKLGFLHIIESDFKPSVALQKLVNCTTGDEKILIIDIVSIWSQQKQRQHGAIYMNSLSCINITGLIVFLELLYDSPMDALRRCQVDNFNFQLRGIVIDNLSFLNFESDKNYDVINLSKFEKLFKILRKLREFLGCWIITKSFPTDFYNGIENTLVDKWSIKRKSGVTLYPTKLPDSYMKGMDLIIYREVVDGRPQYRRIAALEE

T3: Rad55 (pGBD Rad55) (S. cerevisiae) (UniProt P38953)
T3 sequence: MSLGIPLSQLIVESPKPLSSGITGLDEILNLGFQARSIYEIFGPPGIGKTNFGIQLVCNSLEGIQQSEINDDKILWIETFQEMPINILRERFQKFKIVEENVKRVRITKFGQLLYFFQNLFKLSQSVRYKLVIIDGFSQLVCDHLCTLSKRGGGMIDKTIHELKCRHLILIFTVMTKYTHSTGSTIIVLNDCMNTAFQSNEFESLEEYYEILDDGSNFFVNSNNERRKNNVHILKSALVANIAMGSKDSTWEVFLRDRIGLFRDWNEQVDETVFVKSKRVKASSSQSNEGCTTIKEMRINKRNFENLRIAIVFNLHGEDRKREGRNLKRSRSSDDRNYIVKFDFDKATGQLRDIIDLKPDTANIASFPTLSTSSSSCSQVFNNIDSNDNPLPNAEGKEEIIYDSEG


Tests used:
Experiment in all cases: two-hybrid; GAL4 DNA-binding domain (pGBD) and GAL4 activation domain (pGAD) fusions co-transformed into PJ69-4α (also its rad51∆, rad55∆, csm2∆, shu1∆ and shu2∆ derivatives); growth on SC-L-W-H, 2-3 days, 30 °C
[1] = target: T1, Psy3-S18A (pGBD psy3-S18A) (S. cerevisiae)
[2] = target: Rad51 (two-hybrid fusion) (S. cerevisiae) (UniProt P25454)
[3] = target: T2, Psy3 (pGBD Psy3) (S. cerevisiae)
[4] = target: T3, Rad55 (pGBD Rad55) (S. cerevisiae)

Row | binding [1] | binding [2] | binding [3] | binding [4] | Binder
1 | no binding | no binding | binds | binds weakly | Orc6 (pGAD ORC6) (protein, UniProt P38826 1-435) MSMQQVQHCVAEVLRLDPQEKPDWSSGYLKKLTNATSILYNTSLNKVMLKQDEEVARCHICAYIASQKMNEKHMPDLCYYIDSIPLEPKKAKHLMNLFRQSLSNSSPMKQFAWTPSPKKNKRSPVKNGGRFTSSDPKELRNQLFGTPTKVRKSQNNDSFVIPELPPMQTNESPSITRRKLAFEEDEDEDEEEPGNDGLSLKSHSNKSITGTRNVDSDEYENHESDPTSEEEPLGVQESRSGRTKQNKAVGKPQSELKTAKALRKRGRIPNSLLVKKYCKMTTEEIIRLCNDFELPREVAYKIVDEYNINASRLVCPWQLVCGLVLNCTFIVFNERRRKDPRIDHFIVSKMCSLMLTSKVDDVIECVKLVKELIIGEKWFRDLQIRYDDFDGIRYDEIIFRKLGSMLQTTNILVTDDQYNIWKKRIEMDLALTEPL
2 | no binding |  | binds | no binding | Mcm4 (pGAD Mcm4) (protein, UniProt P30665 1-933) MSQQSSSPTKEDNNSSSPVVPNPDSVPPQLSSPALFYSSSSSQGDIYGRNNSQNLSQGEGNIRAAIGSSPLNFPSSSQRQNSDVFQSQGRQGRIRSSASASGRSRYHSDLRSDRALPTSSSSLGRNGQNRVHMRRNDIHTSDLSSPRRIVDFDTRSGVNTLDTSSSSAPPSEASEPLRIIWGTNVSIQECTTNFRNFLMSFKYKFRKILDEREEFINNTTDEELYYIKQLNEMRELGTSNLNLDARNLLAYKQTEDLYHQLLNYPQEVISIMDQTIKDCMVSLIVDNNLDYDLDEIETKFYKVRPYNVGSCKGMRELNPNDIDKLINLKGLVLRSTPVIPDMKVAFFKCNVCDHTMAVEIDRGVIQEPARCERIDCNEPNSMSLIHNRCSFADKQVIKLQETPDFVPDGQTPHSISLCVYDELVDSCRAGDRIEVTGTFRSIPIRANSRQRVLKSLYKTYVDVVHVKKVSDKRLDVDTSTIEQELMQNKVDHNEVEEVRQITDQDLAKIREVAAREDLYSLLARSIAPSIYELEDVKKGILLQLFGGTNKTFTKGGRYRGDINILLCGDPSTSKSQILQYVHKITPRGVYTSGKGSSAVGLTAYITRDVDTKQLVLESGALVLSDGGVCCIDEFDKMSDSTRSVLHEVMEQQTISIAKAGIITTLNARSSILASANPIGSRYNPNLPVTENIDLPPPLLSRFDLVYLVLDKVDEKNDRELAKHLTNLYLEDKPEHISQDDVLPVEFLTMYISYAKEHIHPIITEAAKTELVRAYVGMRKMGDDSRSDEKRITATTRQLESMIRLAEAHAKMKLKNVVELEDVQEAVRLIRSAIKDYATDPKTGKIDMNLVQTGKSVIQRKLQEDLSREIMNVLKDQASDSMSFNELIKQINEHSQDRVESSDIQEALSRLQQEDKVIVLGEGVRRSVRLNNRV
